{"source": "paper PMC4336329", "about": "(PLoS ONE, 2015)", "note": "Among all 310,000 compounds or so, about 14,000 (4.5%) showed an effect of 50% or more. Effects have a minus sign here. This is one part of the list.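 Further: peak tail current of the secondary pulse compared with the same well before compound.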"}
{"biological_target": "human ether-à-go-go-related gene (hERG) potassium channel (human, UniProt Q12809)", "sequence (Q12809 whole entry, looked up)": "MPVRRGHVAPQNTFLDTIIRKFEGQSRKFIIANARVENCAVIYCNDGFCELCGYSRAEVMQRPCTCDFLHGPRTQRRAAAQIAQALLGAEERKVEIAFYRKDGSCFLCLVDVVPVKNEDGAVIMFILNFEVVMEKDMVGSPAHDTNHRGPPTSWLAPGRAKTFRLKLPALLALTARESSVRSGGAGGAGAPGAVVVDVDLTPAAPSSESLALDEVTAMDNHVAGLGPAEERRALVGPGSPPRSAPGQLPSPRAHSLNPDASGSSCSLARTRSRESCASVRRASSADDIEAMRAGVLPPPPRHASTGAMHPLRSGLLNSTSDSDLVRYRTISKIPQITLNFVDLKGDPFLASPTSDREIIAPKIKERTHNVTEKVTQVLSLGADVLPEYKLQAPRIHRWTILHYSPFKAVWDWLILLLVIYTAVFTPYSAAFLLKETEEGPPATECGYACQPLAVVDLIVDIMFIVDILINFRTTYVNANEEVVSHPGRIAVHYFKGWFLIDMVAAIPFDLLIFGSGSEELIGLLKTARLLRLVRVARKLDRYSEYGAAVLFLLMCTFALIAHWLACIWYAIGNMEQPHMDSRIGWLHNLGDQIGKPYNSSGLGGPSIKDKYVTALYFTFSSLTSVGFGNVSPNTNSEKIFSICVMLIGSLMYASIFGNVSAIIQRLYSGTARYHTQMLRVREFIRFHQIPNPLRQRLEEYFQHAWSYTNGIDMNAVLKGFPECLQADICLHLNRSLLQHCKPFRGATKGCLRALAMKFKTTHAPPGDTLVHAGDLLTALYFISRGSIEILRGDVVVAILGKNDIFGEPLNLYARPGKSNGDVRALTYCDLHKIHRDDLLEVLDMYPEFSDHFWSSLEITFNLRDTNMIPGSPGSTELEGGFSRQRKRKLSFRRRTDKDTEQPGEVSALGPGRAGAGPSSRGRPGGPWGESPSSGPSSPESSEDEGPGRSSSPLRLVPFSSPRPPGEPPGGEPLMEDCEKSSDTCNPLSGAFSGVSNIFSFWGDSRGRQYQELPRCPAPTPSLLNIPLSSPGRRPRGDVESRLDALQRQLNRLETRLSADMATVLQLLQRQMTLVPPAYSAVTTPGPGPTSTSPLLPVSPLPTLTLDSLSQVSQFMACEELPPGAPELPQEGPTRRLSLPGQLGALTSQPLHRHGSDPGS", "experiment": "primary screen, population patch clamp on CHO cells stably expressing hERG", "units": {"hERG current change (%, negative = inhibition) at 10uM": "%"}}
{"smiles": "CCCn1nc(NC(=O)c2cccs2)c2cc3ccc(C)cc3nc21", "hERG current change (%, negative = inhibition) at 10uM": 14.8}
{"smiles": "COc1ccc(-c2cnnc(N/N=C/c3ccc(OC)c(OC)c3)n2)cc1", "hERG current change (%, negative = inhibition) at 10uM": -35.7}
{"smiles": "COc1ccc(N2CC(C(=O)NCc3nnnn3-c3ccc(C)c(C)c3)CC2=O)cc1", "note": "(stereo not drawn)", "hERG current change (%, negative = inhibition) at 10uM": -19.6}
{"smiles": "CCCn1c(SCC(=O)N2CCCCC2)nnc1-c1ccco1", "hERG current change (%, negative = inhibition) at 10uM": 6.93}
{"smiles": "CCCCCCCCCCCCCCCC[N+](C)(C)CCN(Cc1ccc(OC)cc1)c1ncccn1.[Br-]", "hERG current change (%, negative = inhibition) at 10uM": -75}
{"smiles": "COc1ccc(OC)c(/C=N/NC(=O)CNC(=O)c2ccc(S(=O)(=O)N3CCCC3)cc2)c1", "hERG current change (%, negative = inhibition) at 10uM": -5.56}
{"smiles": "CCOc1ccc(-c2nnn(CC(=O)Nc3cc(OC)cc(OC)c3)n2)cc1OCC", "hERG current change (%, negative = inhibition) at 10uM": 16.6}
{"smiles": "C/C=C/Cn1c(SCc2ccccc2)nc2c1c(=O)[nH]c(=O)n2C", "hERG current change (%, negative = inhibition) at 10uM": -11.2}
{"smiles": "CCn1nc(NS(=O)(=O)c2ccccc2)c2cc3ccccc3nc21", "hERG current change (%, negative = inhibition) at 10uM": 20.2}
{"smiles": "CCCCn1c(SCC(=O)NCc2ccccc2)nc2ccc(N3CCOCC3)cc2c1=O", "hERG current change (%, negative = inhibition) at 10uM": -13.9}
{"smiles": "O=C(Nc1ccc(F)cc1F)N1CCC(c2nc3ccccc3o2)CC1", "hERG current change (%, negative = inhibition) at 10uM": -37.6}
{"smiles": "C=CCc1c(C)[nH]c(=O)[nH]c1=O", "hERG current change (%, negative = inhibition) at 10uM": 11.4}
{"smiles": "CCc1cccc(NC(=O)c2ccc(Br)o2)c1", "hERG current change (%, negative = inhibition) at 10uM": -46.1}
{"smiles": "CCOC(=O)C1CCN(C(=O)CN2C(=O)c3cccnc3Oc3ccc(C)cc32)CC1", "hERG current change (%, negative = inhibition) at 10uM": -25.8}
{"smiles": "Cc1ccccc1NC(=O)C1CC(=O)OC12CCOC(C)(C)C2", "note": "(stereo not drawn)", "hERG current change (%, negative = inhibition) at 10uM": 10.9}
{"smiles": "CCOC(=O)C1=C(C)NC(=O)C(C#N)C1c1ccncc1", "note": "(stereo not drawn)", "hERG current change (%, negative = inhibition) at 10uM": -4.46}
{"smiles": "Cc1cccc(C)c1NC(=O)/C(C#N)=C/c1ccsc1", "hERG current change (%, negative = inhibition) at 10uM": -13.2}
{"smiles": "Cc1cc(C)n2nc(C(=O)NNC(=O)c3ccccc3)nc2n1", "hERG current change (%, negative = inhibition) at 10uM": 9.18}
{"smiles": "CCCN(CCC)S(=O)(=O)c1ccc(C(=O)Nc2cccnc2)cc1", "hERG current change (%, negative = inhibition) at 10uM": -11.2}
{"smiles": "COCC1CCCCC1OS(N)(=O)=O", "note": "(stereo not drawn)", "hERG current change (%, negative = inhibition) at 10uM": 5.38}
{"smiles": "O=C(Nc1ccc(C(=O)N2CCCCC2)cc1)c1ccc([N+](=O)[O-])cc1", "hERG current change (%, negative = inhibition) at 10uM": -1.34}
{"smiles": "Cc1ccc(CNC(=O)CSc2ncccn2)cc1", "hERG current change (%, negative = inhibition) at 10uM": 5.97}
{"smiles": "O=C1C=CC2C(c3ccc4c(c3)OCO4)CC1N2Cc1ccccc1", "note": "(stereo not drawn)", "hERG current change (%, negative = inhibition) at 10uM": 3.63}
{"smiles": "Oc1ccc(C[C@@H]2CNCCN2CCc2cccc3ccccc23)cc1", "hERG current change (%, negative = inhibition) at 10uM": -64.5}
{"smiles": "O=C(O)C1CCCCC1C(=O)NCCCCc1ccccc1", "note": "(stereo not drawn)", "hERG current change (%, negative = inhibition) at 10uM": -14.6}
{"smiles": "Cc1cc(C(=O)N/N=C/c2ccc(-c3ccc([N+](=O)[O-])cc3Cl)o2)n[nH]1", "hERG current change (%, negative = inhibition) at 10uM": 1.04}
{"smiles": "CC1Cc2nc(SCC(=O)N3CCCc4ccccc43)n(C)c(=O)c2S1", "note": "(stereo not drawn)", "hERG current change (%, negative = inhibition) at 10uM": -11.7}
{"smiles": "COc1ccc(NC(=O)C2CC2)cc1NS(=O)(=O)c1ccc(F)cc1", "hERG current change (%, negative = inhibition) at 10uM": 4.9}
{"smiles": "CCC1=[N+](CC(=O)c2ccc(Br)cc2)CCn2c(C)ccc21.[Br-]", "hERG current change (%, negative = inhibition) at 10uM": -6.76}
{"smiles": "O=C(NCCNCCO)C1(C(F)(F)F)C/C(=C\\CCO)CCCO1", "note": "(stereo not drawn)", "hERG current change (%, negative = inhibition) at 10uM": -1.27}
{"smiles": "CCOC(=O)C1=CCN(Cc2ccccc2)CC1.Cl", "hERG current change (%, negative = inhibition) at 10uM": 12.8}
{"smiles": "COc1cc(-n2c(=O)c3ccccc3n(Cc3cccnc3)c2=O)cc(OC)c1OC", "hERG current change (%, negative = inhibition) at 10uM": 5.1}
{"smiles": "COc1cccc(C(=O)NC2CC3CCCC(C2)N3CC(=O)Nc2ccccc2)c1.Cl", "note": "(stereo not drawn)", "hERG current change (%, negative = inhibition) at 10uM": -54.4}
{"smiles": "COc1ccc2nc(N3CCOCC3)cc(C)c2c1", "hERG current change (%, negative = inhibition) at 10uM": -0.452}
{"smiles": "CCCOc1ccc(CC(=O)NCc2ccco2)cc1OC", "hERG current change (%, negative = inhibition) at 10uM": 8.13}
{"smiles": "CC1=C(C(=O)OCC2CCCO2)C(c2ccccc2OC(C)C)C2=C(CC(c3ccco3)CC2=O)N1", "note": "(stereo not drawn)", "hERG current change (%, negative = inhibition) at 10uM": -57.8}
{"smiles": "O=C(O)C(Cc1ccccc1)N1C(=O)c2c(Cl)c(Cl)c(Cl)c(Cl)c2C1=O", "note": "(stereo not drawn)", "hERG current change (%, negative = inhibition) at 10uM": 3}
{"smiles": "Cc1ccccc1C(=O)N1CCN(S(=O)(=O)c2ccccc2)CC1", "hERG current change (%, negative = inhibition) at 10uM": -5.44}
{"smiles": "Cn1c(=O)c(C(=O)NCc2ccccc2Cl)c(O)c2ccccc21", "hERG current change (%, negative = inhibition) at 10uM": 24.6}
{"smiles": "CCOc1ccc(NC(=O)CSc2nc(C)c3c(c2C#N)CCCC3)cc1", "hERG current change (%, negative = inhibition) at 10uM": -10.6}
{"smiles": "CC(C)NS(=O)(=O)c1ccc(CCC(=O)N2CCC(C(N)=O)CC2)cc1", "hERG current change (%, negative = inhibition) at 10uM": 12.1}
{"smiles": "O=C(COc1ccccc1Cl)NNC(=O)C1CCCO1", "note": "(stereo not drawn)", "hERG current change (%, negative = inhibition) at 10uM": -9.45}
{"smiles": "COc1ccc(O)c(/C=N/NC(=O)CSc2nnc(C)n2-c2ccccc2)c1", "hERG current change (%, negative = inhibition) at 10uM": -7.02}
{"smiles": "COc1ccc2[nH]c(=O)c(CN(Cc3cccs3)Cc3nnnn3C(C)(C)C)cc2c1", "hERG current change (%, negative = inhibition) at 10uM": -46.9}
{"smiles": "CCc1ccc(-c2nc3ccc(Br)cc3c(C(=O)O)c2C)s1", "hERG current change (%, negative = inhibition) at 10uM": 19.1}
{"smiles": "CC(C)CCNC(=S)Nc1ccccc1F", "hERG current change (%, negative = inhibition) at 10uM": -0.715}
{"smiles": "O=C(CCN1C(=O)c2cccc3cccc(c23)C1=O)N1CCN(Cc2ccc3c(c2)OCO3)CC1", "hERG current change (%, negative = inhibition) at 10uM": -29.2}
{"smiles": "O=C(NN=C1CCCC1)c1cc(-c2ccccc2)n[nH]1", "hERG current change (%, negative = inhibition) at 10uM": 9.37}
{"smiles": "CCC(C)NC(=O)Cn1c(=O)n(CCCCCC(=O)Nc2ccccc2)c(=O)c2sccc21", "note": "(stereo not drawn)", "hERG current change (%, negative = inhibition) at 10uM": -40.5}
{"smiles": "CCCC(=O)NCCCc1nc2ccccc2[nH]1", "hERG current change (%, negative = inhibition) at 10uM": 25.4}
{"smiles": "Cc1ccc(NC(=S)Nc2ccc3cn[nH]c3c2)cc1", "hERG current change (%, negative = inhibition) at 10uM": 2.94}
{"smiles": "COc1ccc(C(=O)C2CN(c3ccccc3)CC2c2ccc(Cl)cc2)cc1", "note": "(stereo not drawn)", "hERG current change (%, negative = inhibition) at 10uM": -4.84}
{"smiles": "CCn1cc(C(=O)NCCCOC)c2cc(OC)c(OC)cc2c1=O", "hERG current change (%, negative = inhibition) at 10uM": 0.546}
{"smiles": "CCN(c1ccc(OC)cc1)S(=O)(=O)c1ccc(-c2ccc(=O)[nH]n2)o1", "hERG current change (%, negative = inhibition) at 10uM": 6.45}
{"smiles": "CC12CCC(=O)N1C(C(=O)Nc1cc(C(F)(F)F)ccc1N1CCCCC1)CS2", "note": "(stereo not drawn)", "hERG current change (%, negative = inhibition) at 10uM": 8.84}
{"smiles": "Cc1ccc(S(=O)(=O)Nc2cccc(C(=O)NCC(c3ccco3)N(C)C)c2)cc1F", "note": "(stereo not drawn)", "hERG current change (%, negative = inhibition) at 10uM": -29.1}
{"smiles": "Cc1c(NS(=O)(=O)c2ccc(Cl)c(C(=O)OC(C)C(=O)N3CCOCC3)c2)c(=O)n(-c2ccccc2)n1C", "note": "(stereo not drawn)", "hERG current change (%, negative = inhibition) at 10uM": 5.07}
